According to PMC12752793, “Development of potent Affitin-based bispecific NK cell engagers for the therapy of MSLN-expressing cancers” (Molecular Therapy Oncology, 2025):

What was measured:
[1] = target: T1, recombinant 302–359 fragment of human mesothelin (hMSLN) (Homo sapiens, UniProt Q13421, biotin on the AviTag); assay: SPR; Biacore T200; hMSLN 302–359 amine-coupled at about 700 RU on CM5; analytes 12.5 to 200 nM in HBS-EP, single cycle kinetics, 30 μL/min; bivalent model; apparent; conditions: both partners purified
T1 construct: Amine-coupled to a CM5 chip in SPR, captured on NeutrAvidin in ELISA; source: E. coli Origami B with pBirA, purified (Ni-NTA, Superdex 75); not shown: AviTag, C-terminal, kept

[2] = target: T2, human mesothelin on the surface of Meso34-MSLN cells (human, UniProt Q13421); assay: flow cytometry on cells; Meso34 and Meso34-MSLN cells stained with a concentration range of N13 monomer (streptavidin-PE), N13 dimer (anti-6X His Tag-PE) or MORAb-009 (anti-human IgG Fc), 30 min at 4°C; EC50 by one binding site regression; conditions: one partner purified
T2 construct: human mesothelin expressed from a lentivirus on Meso34 cells; also called cellular hMSLN; Meso34-hMSLN; source: Meso34 pleural mesothelioma cells transduced with an hMSLN-encoding lentivirus, on cells

binding result [1]: binds
binding result [2]: binds
B1: MORAb-009 (amatuximab) anti-mesothelin monoclonal antibody (antibody, V domains shown)
VH: not shown
VL: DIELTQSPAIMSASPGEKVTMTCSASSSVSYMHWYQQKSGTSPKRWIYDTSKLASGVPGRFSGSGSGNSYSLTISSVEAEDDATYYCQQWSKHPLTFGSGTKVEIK
notes: Bivalent antibody, detected with an anti-human IgG Fc antibody; the PDB entry would give the variable parts only; also called MORAb antibody; source: bought: Proteogenix (PX-TA1049)
